According to the supplement of paper PMC10369915:
The list shows a part of the results. Rule as the data show it: active = 3.2 or more and inactive = the rest. Most of these values are background signal.

Experiments:
Experiment in all cases: enrichment score (SH2-bound / input frequency) (ratio); bacterial display of known human phosphotyrosine sites (pTyr-Var adds point mutants) read by sequencing; higher = stronger binding; tyrosines were phosphorylated by kinases first
Conditions in all cases: peptide library: pTyr-Var
SHP2 C-SH2 domain E139D = target: SHP2 C-SH2 domain E139D
[1] = target: SHP2 C-SH2 domain wild-type
SHP2 N-SH2 domain L43F = target: SHP2 N-SH2 domain L43F
SHP2 N-SH2 domain T42A = target: SHP2 N-SH2 domain T42A
SHP2 N-SH2 domain T52S = target: SHP2 N-SH2 domain T52S
[2] = target: SHP2 N-SH2 domain wild-type

Measured: enrichment score
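Also: displayed peptides selected on beads carrying the immobilized SH2 domain, with library peptides lacking any tyrosine serving as negative controls.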

RLDRSYSFSFS [PEAR1_Y890_YF]
inactive: SHP2 C-SH2 domain E139D 0.585 | [1] 0.517 | SHP2 N-SH2 domain L43F 0.378 | SHP2 N-SH2 domain T42A 0.447 | SHP2 N-SH2 domain T52S 0.441 | [2] 0.501

AGEGSYALDSE [PES1_Y265_T264S]
inactive: SHP2 C-SH2 domain E139D 0.606 | [1] 0.257 | SHP2 N-SH2 domain L43F 0.483 | SHP2 N-SH2 domain T42A 0.246 | SHP2 N-SH2 domain T52S 0.429 | [2] 0.649

AGVIIYTSRFQ [PFAS_Y538_A535V]
inactive: SHP2 C-SH2 domain E139D 0.687 | [1] 0.663 | SHP2 N-SH2 domain L43F 0.67 | SHP2 N-SH2 domain T42A 0.657 | SHP2 N-SH2 domain T52S 0.648 | [2] 0.83

KRISCYEARYQ [PFKFB3_Y194_S197R]
inactive: SHP2 C-SH2 domain E139D 0.909 | [1] 1.2 | SHP2 N-SH2 domain L43F 0.862 | SHP2 N-SH2 domain T42A 0.828 | SHP2 N-SH2 domain T52S 0.735 | [2] 1.12

RLQAAYNLVKR [PFKM_Y103_R100Q]
inactive: SHP2 C-SH2 domain E139D 1.93 | [1] 1.87 | SHP2 N-SH2 domain L43F 1.97 | SHP2 N-SH2 domain T42A 1.66 | SHP2 N-SH2 domain T52S 1.66 | [2] 1.57

LNERHYGGLTG [PGAM2_Y92]
inactive: SHP2 C-SH2 domain E139D 0.788 | [1] 0.752 | SHP2 N-SH2 domain L43F 0.817 | SHP2 N-SH2 domain T42A 0.557 | SHP2 N-SH2 domain T52S 0.717 | [2] 0.698

LNERHYGGLTD [PGAM2_Y92_G97D]
inactive: SHP2 C-SH2 domain E139D 0.64 | [1] 0.783 | SHP2 N-SH2 domain L43F 0.855 | SHP2 N-SH2 domain T42A 0.492 | SHP2 N-SH2 domain T52S 0.749 | [2] 0.704

LNEWHYGGLTG [PGAM2_Y92_R90W]
inactive: SHP2 C-SH2 domain E139D 1.61 | [1] 1.15 | SHP2 N-SH2 domain L43F 1.13 | SHP2 N-SH2 domain T42A 0.981 | SHP2 N-SH2 domain T52S 1.18 | [2] 1.32

LNEQHYGGLTG [PGAM4_Y92_R90Q]
inactive: SHP2 C-SH2 domain E139D 0.619 | [1] 0.334 | SHP2 N-SH2 domain L43F 0.47 | SHP2 N-SH2 domain T42A 0.427 | SHP2 N-SH2 domain T52S 0.601 | [2] 0.427

KLGDVYVNDAF [PGK1_Y161]
inactive: SHP2 C-SH2 domain E139D 0.852 | [1] 0.792 | SHP2 N-SH2 domain L43F 0.985 | SHP2 N-SH2 domain T42A 0.693 | SHP2 N-SH2 domain T52S 0.894 | [2] 1.03

LYIDSYEKDVA [PGM1_Y521]
inactive: SHP2 C-SH2 domain E139D 1 | [1] 0.992 | SHP2 N-SH2 domain L43F 1.06 | SHP2 N-SH2 domain T42A 0.677 | SHP2 N-SH2 domain T52S 0.865 | [2] 0.559

PYIDSYEKDVA [PGM1_Y521_L516P]
inactive: SHP2 C-SH2 domain E139D 0.675 | [1] 0.6 | SHP2 N-SH2 domain L43F 0.51 | SHP2 N-SH2 domain T42A 0.607 | SHP2 N-SH2 domain T52S 0.546 | [2] 0.489

GHGRFYMKEAI [PGM1_Y66_D62H]
inactive: SHP2 C-SH2 domain E139D 2.51 | [1] 2.06 | SHP2 N-SH2 domain L43F 2.13 | SHP2 N-SH2 domain T42A 2.14 | SHP2 N-SH2 domain T52S 2.03 | [2] 1.6

MKVPVYETPAG [PGM5_Y358]
inactive: SHP2 C-SH2 domain E139D 0.83 | [1] 0.827 | SHP2 N-SH2 domain L43F 0.939 | SHP2 N-SH2 domain T42A 0.903 | SHP2 N-SH2 domain T52S 0.736 | [2] 0.917

MKVPLYETPAG [PGM5_Y358_V357L]
inactive: SHP2 C-SH2 domain E139D 1.2 | [1] 0.907 | SHP2 N-SH2 domain L43F 0.881 | SHP2 N-SH2 domain T42A 0.827 | SHP2 N-SH2 domain T52S 0.927 | [2] 0.906

IRFSDYVEVAD [PHACTR1_Y525]
inactive: SHP2 C-SH2 domain E139D 1.09 | [1] 1.26 | SHP2 N-SH2 domain L43F 1.3 | SHP2 N-SH2 domain T42A 1.02 | SHP2 N-SH2 domain T52S 1.22 | [2] 1.1

YRDALYKSMVD [PHEX_Y250_F252S]
inactive: SHP2 C-SH2 domain E139D 0.929 | [1] 0.996 | SHP2 N-SH2 domain L43F 1.02 | SHP2 N-SH2 domain T42A 0.712 | SHP2 N-SH2 domain T52S 0.846 | [2] 1.02

FRDALYKSMVD [PHEX_Y250_F252S_YF]
inactive: SHP2 C-SH2 domain E139D 1.02 | [1] 1.08 | SHP2 N-SH2 domain L43F 0.969 | SHP2 N-SH2 domain T42A 0.857 | SHP2 N-SH2 domain T52S 0.89 | [2] 0.82

LKGIRYLTSGL [PIGA_Y82_R77L]
inactive: SHP2 C-SH2 domain E139D 1.14 | [1] 0.907 | SHP2 N-SH2 domain L43F 0.86 | SHP2 N-SH2 domain T42A 0.847 | SHP2 N-SH2 domain T52S 0.799 | [2] 0.979

TKQLTYEEQDL [PIK3C3_Y310]
inactive: SHP2 C-SH2 domain E139D 0.575 | [1] 0.613 | SHP2 N-SH2 domain L43F 0.611 | SHP2 N-SH2 domain T42A 0.51 | SHP2 N-SH2 domain T52S 0.633 | [2] 0.7

FDDIAYIRKNL [PIK3CA_Y1021_T1025N]
inactive: SHP2 C-SH2 domain E139D 1.19 | [1] 0.858 | SHP2 N-SH2 domain L43F 1.11 | SHP2 N-SH2 domain T42A 0.743 | SHP2 N-SH2 domain T52S 0.876 | [2] 1.33

FDDIAHIRKTL [PIK3CA_Y1021_Y1021H]
inactive: SHP2 C-SH2 domain E139D 0.836 | [1] 0.837 | SHP2 N-SH2 domain L43F 0.862 | SHP2 N-SH2 domain T42A 0.669 | SHP2 N-SH2 domain T52S 0.957 | [2] 0.787

QEALEYFMKQM [PIK3CA_Y1038]
inactive: SHP2 C-SH2 domain E139D 1.33 | [1] 1.06 | SHP2 N-SH2 domain L43F 0.852 | SHP2 N-SH2 domain T42A 1.26 | SHP2 N-SH2 domain T52S 1.27 | [2] 1.47

QEALEYFMKQI [PIK3CA_Y1038_M1043I]
inactive: SHP2 C-SH2 domain E139D 1.34 | [1] 1.18 | SHP2 N-SH2 domain L43F 1.18 | SHP2 N-SH2 domain T42A 1.03 | SHP2 N-SH2 domain T52S 1.23 | [2] 1.48

QEALEYFMKQT [PIK3CA_Y1038_M1043T]
inactive: SHP2 C-SH2 domain E139D 1.24 | [1] 1.22 | SHP2 N-SH2 domain L43F 1.07 | SHP2 N-SH2 domain T42A 0.959 | SHP2 N-SH2 domain T52S 0.885 | [2] 1.16

KKLHEYNTQFQ [PIK3R1_Y452]
inactive: SHP2 C-SH2 domain E139D 0.925 | [1] 0.753 | SHP2 N-SH2 domain L43F 0.731 | SHP2 N-SH2 domain T42A 0.74 | SHP2 N-SH2 domain T52S 0.683 | [2] 0.823

EKSREYHRLFE [PIK3R1_Y463_D464H_YF]
inactive: SHP2 C-SH2 domain E139D 0.922 | [1] 0.875 | SHP2 N-SH2 domain L43F 0.684 | SHP2 N-SH2 domain T42A 0.644 | SHP2 N-SH2 domain T52S 0.692 | [2] 0.72

EESREYDRLYE [PIK3R1_Y463_K459E]
inactive: SHP2 C-SH2 domain E139D 0.546 | [1] 0.631 | SHP2 N-SH2 domain L43F 0.513 | SHP2 N-SH2 domain T42A 0.536 | SHP2 N-SH2 domain T52S 0.571 | [2] 0.637

EYHRLYEEYTR [PIK3R1_Y467_D464H]
inactive: SHP2 C-SH2 domain E139D 0.913 | [1] 0.787 | SHP2 N-SH2 domain L43F 0.913 | SHP2 N-SH2 domain T42A 0.737 | SHP2 N-SH2 domain T52S 0.737 | [2] 0.994

MGIMLYGVDSR [PKD1_Y3143_V3138M]
inactive: SHP2 C-SH2 domain E139D 0.888 | [1] 0.921 | SHP2 N-SH2 domain L43F 0.732 | SHP2 N-SH2 domain T42A 0.747 | SHP2 N-SH2 domain T52S 0.602 | [2] 1.14

VGGRIYIDDGL [PKLR_Y218]
inactive: SHP2 C-SH2 domain E139D 1.48 | [1] 1.15 | SHP2 N-SH2 domain L43F 1.28 | SHP2 N-SH2 domain T42A 0.832 | SHP2 N-SH2 domain T52S 1.32 | [2] 1.23

VGGRIYIDDAL [PKLR_Y218_G222A]
inactive: SHP2 C-SH2 domain E139D 0.943 | [1] 0.959 | SHP2 N-SH2 domain L43F 0.926 | SHP2 N-SH2 domain T42A 0.819 | SHP2 N-SH2 domain T52S 0.78 | [2] 1.06

RPGSGYTKIMR [PKLR_Y564_N566K]
inactive: SHP2 C-SH2 domain E139D 1.25 | [1] 1.39 | SHP2 N-SH2 domain L43F 1.02 | SHP2 N-SH2 domain T42A 0.929 | SHP2 N-SH2 domain T52S 0.85 | [2] 0.75

EDGRLYAVKRS [PKMYT1_Y136]
inactive: SHP2 C-SH2 domain E139D 0.532 | [1] 0.485 | SHP2 N-SH2 domain L43F 0.423 | SHP2 N-SH2 domain T42A 0.505 | SHP2 N-SH2 domain T52S 0.485 | [2] 0.583

SEPDLYFDPRG [PKP1_Y160_C161Y_YF]
inactive: SHP2 C-SH2 domain E139D 0.709 | [1] 0.661 | SHP2 N-SH2 domain L43F 0.655 | SHP2 N-SH2 domain T42A 0.709 | SHP2 N-SH2 domain T52S 0.603 | [2] 0.686

PVPKTYDMLKA [PKP2_Y108]
inactive: SHP2 C-SH2 domain E139D 0.749 | [1] 0.901 | SHP2 N-SH2 domain L43F 0.825 | SHP2 N-SH2 domain T42A 0.609 | SHP2 N-SH2 domain T52S 0.721 | [2] 1.18

FTHSDYQFSQR [PKP2_Y166_YF]
inactive: SHP2 C-SH2 domain E139D 0.806 | [1] 0.697 | SHP2 N-SH2 domain L43F 0.764 | SHP2 N-SH2 domain T42A 0.676 | SHP2 N-SH2 domain T52S 0.613 | [2] 0.905
